Drawing on the antibiotic and cytotoxicity screens of Wong et al. (2023), this text covers cytotoxicity call for 40 compounds.

Each structure is given as a SMILES string. Some of the results follow.

The test system of one assay is HSkMC (human skeletal muscle cells). The assay can be described thus: cytotoxicity call (relative viability < 0.9). As to conditions: 10 µM.
For the compound `O=C(C[C@H]1CC[C@@H]2[C@H](COC[C@H](O)CN2C(=O)Nc2ccc(F)cc2)O1)NCCCN1CCOCC1`, the cytotoxicity call was “inactive”.

Regarding `C[C@@H]1CN([C@@H](C)CO)S(=O)(=O)c2ccc(-c3ccc(C(=O)N(C)C)cc3)cc2O[C@@H]1CN(C)C(=O)Cc1ccccn1`, the cytotoxicity call is “inactive”.

With `C[C@@H]1CN([C@H](C)CO)C(=O)Cc2cc(NC(=O)Nc3ccccc3)ccc2O[C@H]1CN(C)S(=O)(=O)c1cn(C)cn1`, the cytotoxicity call is “inactive”.

With `C[C@H]1CN([C@@H](C)CO)C(=O)Cc2cc(NS(C)(=O)=O)ccc2O[C@H]1CN(C)S(=O)(=O)c1ccccc1`, the cytotoxicity call was “inactive”.

Consider `C[C@@H]1CCCCO[C@@H](CN(C)C(=O)NC2CCCCC2)[C@H](C)CN([C@@H](C)CO)C(=O)c2cc(NC(=O)Nc3ccc(F)cc3)ccc2O1`, for which the cytotoxicity call was “inactive”.

On to `C=CCOC(=O)[C@H]1[C@@H]2C(=O)O[C@@H](c3ccccc3)[C@@H](c3ccccc3)N2[C@@H](c2ccc(OCCOC(=O)[C@H]3C[C@H]4C(=O)NCC(=O)N4[C@H]3c3ccc(O)cc3)cc2)[C@]12C(=O)Nc1ccccc12`, for which the cytotoxicity call is “inactive”.

Take `O=C(CN1C(=O)c2cccc3cccc(c23)C1=O)N1CCN(CCN2C(=O)[C@@H]3[C@@H](C2=O)[C@@H]2C=C[C@@H]3C2)CC1`: the cytotoxicity call is “inactive”.

Turning to `CNC(=O)C[C@H]1CC[C@@H]2[C@H](COC[C@@H](O)CN2C(=O)Nc2ccc3c(c2)OCO3)O1`, the cytotoxicity call is “inactive”.

As for `CC[C@@H]1OC(=O)[C@@H](C)[C@H](O[C@H]2C[C@@](C)(OC)[C@@H](O)[C@H](C)O2)[C@@H](C)[C@H](O)[C@@](C)(O[C@@H]2O[C@H](C)C[C@H](N(C)C)[C@H]2O)C[C@H](C)C(=O)[C@@H](C)[C@H](O)[C@@]1(C)O`, the cytotoxicity call is “inactive”.

In the case of `CN1C(=O)c2cc(NC(=O)C3CCOCC3)ccc2OC[C@H]2O[C@@H](CC(=O)NCc3ccc4c(c3)OCO4)CC[C@H]21`, the cytotoxicity call is “inactive”.

As for `O=C(Nc1ccccc1)c1cc2c(c(-c3cccc(-c4ccncc4)c3)n1)[C@@H](CCO)N(CC1CCOCC1)C2`, the cytotoxicity call was “inactive”.

For another assay, the system named is HepG2. The assay can be described thus: cytotoxicity call (relative viability < 0.9). As to conditions: 10 µM.
With `COc1ccc(NC(=O)Nc2ccc3c(c2)C(=O)N([C@@H](C)CO)C[C@@H](C)[C@H](CN(C)Cc2ccc(Cl)c(Cl)c2)OCCCC[C@H](C)O3)cc1`, the cytotoxicity call is “inactive”.

In the case of `C[C@H]1CC/C=C\[C@H]2O[C@@]34C=CCN(Cn5nnc6ccccc65)C(=O)[C@H]3N(CCCCCCO)C(=O)[C@@H]4[C@@H]2C(=O)O1`, the cytotoxicity call is “inactive”.

For the compound `CCCNc1nc(Nc2ccc(C#N)cc2)ncc1C#CCCCNC(=O)[C@H](C)N(C)C(=O)/C=C/CN(C)C`, the cytotoxicity call was “active”.

As to `C[C@H](CO)N1C[C@H](C)[C@H](CN(C)C(=O)Nc2ccc(-c3ccccc3)cc2)OCc2ccccc2-c2c(n(C)c3ccccc23)C1=O`, the cytotoxicity call was “inactive”.

With `COc1ccc(S(=O)(=O)N(C)C[C@H]2Oc3c(NC(=O)c4cc(C)nn4C)cccc3C(=O)N([C@H](C)CO)C[C@H]2C)cc1`, the cytotoxicity call is “inactive”.

Take `C[C@@H]1CN([C@H](C)CO)C(=O)c2cc(NC(=O)Nc3ccc4c(c3)OCO4)ccc2O[C@@H](C)CCCCO[C@H]1CN(C)Cc1ccc(Cl)c(Cl)c1`: the cytotoxicity call is “active”.

On to `O=C(C[C@@H]1CC[C@@H]2[C@H](COC[C@H](O)CN2S(=O)(=O)c2ccc(Cl)cc2)O1)NCc1ccncn1`, for which the cytotoxicity call was “inactive”.

Regarding `Cc1ccc(S(=O)(=O)Nc2ccc3c(c2)C(=O)N([C@H](C)CO)C[C@H](C)[C@H](CN(C)S(C)(=O)=O)OCCCC[C@H](C)O3)cc1`, the cytotoxicity call is “inactive”.

With `COc1ccc(NC(=O)N(C)C[C@H]2Oc3ccc(NC(=O)CCCCCC(=O)Nc4ccccc4N)cc3CC(=O)N([C@H](C)CO)C[C@H]2C)cc1`, the cytotoxicity call was “inactive”.

On to `C[C@@H]1CCCCO[C@H](CN(C)Cc2ccc3c(c2)OCO3)[C@H](C)CN([C@@H](C)CO)C(=O)c2cc(NC(=O)Nc3ccc(F)cc3)ccc2O1`, for which the cytotoxicity call was “active”.

For the compound `C[C@H](CO)N1C[C@H](C)[C@H](CN(C)S(=O)(=O)c2ccc(Cl)cc2)Oc2ccc(N(C)C)cc2C1=O`, the cytotoxicity call is “inactive”.

For `CC(=O)N[C@H]1CC[C@H](CCNC(=O)C2CC2)O[C@H]1CO`, the cytotoxicity call was “inactive”.

For `COc1ccccc1C#Cc1ccc2c(c1)O[C@@H](CN(C)Cc1cncnc1)[C@H](C)CN([C@H](C)CO)S2(=O)=O`, the cytotoxicity call was “inactive”.

On to `Cc1noc(C)c1S(=O)(=O)Nc1ccc2c(c1)C(=O)N([C@@H](C)CO)C[C@@H](C)[C@@H](CN(C)Cc1ccc(C(F)(F)F)cc1)OCCCC[C@H](C)O2`, for which the cytotoxicity call was “inactive”.

On to `C[C@H](CO)N1C[C@H](C)[C@H](CN(C)Cc2ccccc2)OCCCC[C@H](C)Oc2ccc(NC(=O)Nc3ccc(C(F)(F)F)cc3)cc2C1=O`, for which the cytotoxicity call was “active”.

Turning to `C[C@@H]1CN([C@H](C)CO)C(=O)c2cccc(NS(=O)(=O)c3cn(C)cn3)c2O[C@H]1CN(C)S(=O)(=O)c1cn(C)cn1`, the cytotoxicity call was “inactive”.

For `Cc1ccc(S(=O)(=O)Nc2ccc3c(c2)C(=O)N([C@H](C)CO)C[C@H](C)[C@H](CN(C)C(=O)C2CCCCC2)OCCCC[C@H](C)O3)cc1`, the cytotoxicity call is “inactive”.

For the compound `C[C@H](CO)N1C[C@H](C)[C@H](CN(C)Cc2ccccc2)OCCCC[C@H](C)Oc2ccc(NC(=O)Nc3ccc4c(c3)OCO4)cc2C1=O`, the cytotoxicity call is “inactive”.

For the compound `CC(C)/C=C1\CC/C(=C\c2ccc(C(F)(F)F)cc2)C1=O`, the cytotoxicity call is “active”.

For the compound `C[C@@H](NCc1cnc(N(C)C)s1)C(N)=O`, the cytotoxicity call is “inactive”.

For the compound `COc1cccc(CNC(=O)c2cc3c(c(-c4cccc(-c5ccc(C#N)cc5)c4)n2)[C@H](CCO)N([S@@](=O)C(C)(C)C)C3)c1`, the cytotoxicity call was “inactive”.

For `COCC#Cc1cnc2c(c1)C(=O)N([C@@H](C)CO)C[C@@H](C)[C@H](CN(C)S(=O)(=O)c1cccc(OC)c1)O2`, the cytotoxicity call is “inactive”.

As to `C=CC[C@@H](CC(=O)N[C@H](CO)Cc1ccccc1)C(=O)N[C@@H](C)COC(=O)[C@H](CC=C)CC(=O)OC(C)(C)C`, the cytotoxicity call was “inactive”.

Take `C[C@@H]1CN([C@@H](C)CO)C(=O)c2cc(NC(=O)Nc3ccccc3)ccc2O[C@@H](C)CCCCO[C@@H]1CN(C)C(=O)Cc1ccccc1`: the cytotoxicity call was “inactive”.

As for `C[C@H](CO)N1C[C@H](C)[C@@H](CN(C)C(=O)NC2CCCCC2)Oc2ccc(NC(=O)CCCN(C)C)cc2C1=O`, the cytotoxicity call was “inactive”.

For `NCCn1cccn1`, the cytotoxicity call is “inactive”.

For `CS(=O)(=O)N1CCN(C(=O)NCc2ccccc2)C[C@]2(CNC(=O)C2)C1`, the cytotoxicity call is “inactive”.

`C[C@@H]1CN([C@@H](C)CO)C(=O)c2cc(NC(=O)Nc3ccc4c(c3)OCO4)ccc2O[C@@H](C)CCCCO[C@@H]1CN(C)Cc1ccccc1`: the cytotoxicity call was “active”.

Take `CN(C(=O)c1ccc(Cl)c(N2C(=O)CCS2(=O)=O)c1)[C@H]1CCS(=O)(=O)C1`: the cytotoxicity call was “inactive”.

Consider `O=C(C[C@H]1CC[C@@H]2[C@H](COC[C@H](O)CN2C(=O)Nc2ccc(F)cc2)O1)NCCCN1CCOCC1`, for which the cytotoxicity call was “inactive”.

`C[C@@H]1CN([C@@H](C)CO)S(=O)(=O)c2ccc(-c3ccc(C(=O)N(C)C)cc3)cc2O[C@@H]1CN(C)C(=O)Cc1ccccn1`: the cytotoxicity call is “inactive”.

Take `C[C@@H]1CN([C@H](C)CO)C(=O)Cc2cc(NC(=O)Nc3ccccc3)ccc2O[C@H]1CN(C)S(=O)(=O)c1cn(C)cn1`: the cytotoxicity call is “inactive”.

For the compound `C[C@H]1CN([C@@H](C)CO)C(=O)Cc2cc(NS(C)(=O)=O)ccc2O[C@H]1CN(C)S(=O)(=O)c1ccccc1`, the cytotoxicity call was “inactive”.

For `C[C@@H]1CCCCO[C@@H](CN(C)C(=O)NC2CCCCC2)[C@H](C)CN([C@@H](C)CO)C(=O)c2cc(NC(=O)Nc3ccc(F)cc3)ccc2O1`, the cytotoxicity call was “inactive”.

In the case of `C=CCOC(=O)[C@H]1[C@@H]2C(=O)O[C@@H](c3ccccc3)[C@@H](c3ccccc3)N2[C@@H](c2ccc(OCCOC(=O)[C@H]3C[C@H]4C(=O)NCC(=O)N4[C@H]3c3ccc(O)cc3)cc2)[C@]12C(=O)Nc1ccccc12`, the cytotoxicity call is “inactive”.

Regarding `O=C(CN1C(=O)c2cccc3cccc(c23)C1=O)N1CCN(CCN2C(=O)[C@@H]3[C@@H](C2=O)[C@@H]2C=C[C@@H]3C2)CC1`, the cytotoxicity call was “inactive”.

For the compound `CNC(=O)C[C@H]1CC[C@@H]2[C@H](COC[C@@H](O)CN2C(=O)Nc2ccc3c(c2)OCO3)O1`, the cytotoxicity call is “inactive”.

Take `CC[C@@H]1OC(=O)[C@@H](C)[C@H](O[C@H]2C[C@@](C)(OC)[C@@H](O)[C@H](C)O2)[C@@H](C)[C@H](O)[C@@](C)(O[C@@H]2O[C@H](C)C[C@H](N(C)C)[C@H]2O)C[C@H](C)C(=O)[C@@H](C)[C@H](O)[C@@]1(C)O`: the cytotoxicity call was “inactive”.

For the compound `CN1C(=O)c2cc(NC(=O)C3CCOCC3)ccc2OC[C@H]2O[C@@H](CC(=O)NCc3ccc4c(c3)OCO4)CC[C@H]21`, the cytotoxicity call was “inactive”.

In the case of `O=C(Nc1ccccc1)c1cc2c(c(-c3cccc(-c4ccncc4)c3)n1)[C@@H](CCO)N(CC1CCOCC1)C2`, the cytotoxicity call is “inactive”.
